Publication PMC4336329 (PLoS ONE, 2015)
Among all 310,000 compounds or so, about 14,000 (4.5%) showed an effect of 50% or more. Effects have a minus sign here. The list shows a part of the results.

molecular target: human ether-à-go-go-related gene (hERG) potassium channel (human, UniProt Q12809); assay: primary screen, population patch clamp on CHO cells stably expressing hERG
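Also: peak tail current of the secondary pulse compared with the same well before compound.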

Chain of human ether-à-go-go-related gene (hERG) potassium channel (Q12809 whole entry, looked up): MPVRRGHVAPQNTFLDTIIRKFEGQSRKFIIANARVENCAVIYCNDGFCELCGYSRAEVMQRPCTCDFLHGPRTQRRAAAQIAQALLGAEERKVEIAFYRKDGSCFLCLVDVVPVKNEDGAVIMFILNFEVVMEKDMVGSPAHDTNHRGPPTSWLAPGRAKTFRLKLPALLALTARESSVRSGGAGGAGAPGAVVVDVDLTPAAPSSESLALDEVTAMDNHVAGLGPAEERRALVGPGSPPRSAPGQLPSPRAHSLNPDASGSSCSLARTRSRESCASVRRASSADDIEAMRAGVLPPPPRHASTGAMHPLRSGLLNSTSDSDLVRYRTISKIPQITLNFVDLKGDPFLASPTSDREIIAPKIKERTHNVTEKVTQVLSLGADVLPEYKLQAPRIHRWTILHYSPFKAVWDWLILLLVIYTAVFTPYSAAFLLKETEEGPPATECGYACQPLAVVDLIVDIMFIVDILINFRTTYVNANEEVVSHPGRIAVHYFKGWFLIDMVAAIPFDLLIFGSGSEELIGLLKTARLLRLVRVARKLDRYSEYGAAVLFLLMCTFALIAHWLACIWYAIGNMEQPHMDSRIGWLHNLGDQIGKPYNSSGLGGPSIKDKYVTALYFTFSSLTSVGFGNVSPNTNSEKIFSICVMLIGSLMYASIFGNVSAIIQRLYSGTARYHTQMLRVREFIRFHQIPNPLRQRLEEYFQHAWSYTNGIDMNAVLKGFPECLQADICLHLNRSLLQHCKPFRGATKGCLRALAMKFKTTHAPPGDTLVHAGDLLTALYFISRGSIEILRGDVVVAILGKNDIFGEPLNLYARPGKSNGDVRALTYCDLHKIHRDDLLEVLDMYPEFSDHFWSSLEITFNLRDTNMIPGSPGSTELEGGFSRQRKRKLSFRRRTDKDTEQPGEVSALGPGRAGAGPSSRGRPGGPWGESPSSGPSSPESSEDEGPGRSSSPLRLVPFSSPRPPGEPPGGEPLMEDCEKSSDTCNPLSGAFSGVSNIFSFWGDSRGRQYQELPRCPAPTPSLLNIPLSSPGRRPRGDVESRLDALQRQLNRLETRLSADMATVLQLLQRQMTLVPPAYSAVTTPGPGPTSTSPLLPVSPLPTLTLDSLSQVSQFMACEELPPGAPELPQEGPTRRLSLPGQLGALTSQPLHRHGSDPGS

| Compound | hERG current change (%, negative = inhibition) at 10uM |
| --- | --- |
| COC(=O)c1sc(NC(=O)CSc2nc3cccnc3n2C2CCCCC2)nc1C | 10.1% |
| O=S(=O)(c1ccccc1)N1CCCN(S(=O)(=O)c2ccccc2)CC1 | 20.3% |
| C(CCc1nn[nH]n1)CCc1nn[nH]n1 | 11.9% |
| CCOc1ccc2nc(SC3CC(=O)N(c4ccccc4)C3=O)sc2c1 (centres unmarked) | 12.5% |
| CCOC(=O)C(Cc1ccccc1)NC(=O)CCCC(=O)c1ccccc1 (centres unmarked) | 0.911% |
| O=C(NCCSc1ncc(-c2ccc(F)cc2)[nH]1)c1ccco1 | -37.1% |
| COc1cccc(NC(=O)COC(=O)CNS(=O)(=O)c2c(F)cccc2F)c1 | -8.24% |
| Cn1cccc1/C=N/NC(=O)c1cc(-c2cccs2)nc2ccccc12 | -7.93% |
| Cn1c(N)c(C(=O)COC(=O)C2=COCCO2)c(=O)n(C)c1=O | 11.6% |
| COc1ccc(C(CNCC(O)COc2c(C)ccc(C)c2C)N(C)C)cc1 (centres unmarked) | -44.1% |
| O=S(=O)(/N=C(/Nc1cc(N2CCOCC2)ncn1)c1ccc(F)cc1)c1ccccc1 | 0.844% |
| CCCN1CCN(C(=O)CCS(=O)(=O)c2cc3c(cc2Cl)NC(=O)CO3)CC1 | -48% |
| Cc1ccsc1C(=O)N(C)CC(=O)N(CC(C)C)c1c(N)n(CC(C)C)c(=O)[nH]c1=O | -1.64% |
| O=C(O)c1ccn[nH]1 | -0.906% |
| O=C(COc1coc(CN2CCc3ccccc3C2)cc1=O)Nc1ccc([N+](=O)[O-])cc1 | -31.7% |
| c1ccc(-n2ncc3c2ncn2nc(-c4ccco4)nc32)cc1 | 13.3% |
| O=C(COc1ccccc1)N(Cc1cccs1)C1CCS(=O)(=O)C1 (centres unmarked) | -17.4% |
| O=C(Nn1cnc2ccccc2c1=O)c1c(F)cccc1F | 25.8% |
| Cc1nc(-c2nc(-c3c(C(=O)NNC(=O)c4ccc(Cl)cc4)noc3C)cs2)cs1 | -35.1% |
| CCN1/C(=C2\OC(=S)N(C)C2=O)Sc2ccccc21 | -2.13% |
| COc1ccccc1/C=C/C(=O)OCC(=O)NCc1ccco1 | 1.61% |
| CC1CC(C)CN(C(=O)C2CCC(CNc3c(N4CCCCC4)c(=O)c3=O)CC2)C1 (centres unmarked) | 3.42% |

| Compound | hERG current change (%, negative = inhibition) at 10uM |
| --- | --- |
| COc1cc(/C=N/n2c(C)n[nH]c2=S)ccc1OCc1ccccc1 | 5.01% |
| COc1ccc(N(C)S(=O)(=O)c2c(C)noc2C)c(OC)c1 | 8.45% |
| CC1(C)CC(=O)C2=C(C1)N(c1cccnc1)C(N)=C(C#N)C2c1cccs1 (centres unmarked) | -5.86% |
| COc1cccc2c(=O)n(CC(=O)N3CCC(C)CC3)ccc12 | -6.17% |
| CCOC(=O)c1cc2c(=O)[nH]ccc2nc1C | 13% |
| Cc1ccc(C)c(-n2cc(CNCCCn3cccn3)c(-c3ccccc3)n2)c1 | -64.9% |
| CCOC(=O)C1(CCCc2ccccc2)CCN(Cc2cnc(C)s2)CC1 | -73.1% |
| CCCS(=O)(=O)c1c(S(=O)(=O)CCC)c2cnccn2c1C(=O)c1ccc(F)cc1 | -6.13% |
| O=C(NNC(=O)c1ccccc1F)c1ccc(-c2ccc(Cl)cc2)o1 | -14.2% |
| Cn1c(CNC2CCCCC2)c(C#N)c2ccccc21 | -7.39% |
| O=C(c1ccccc1)N1CCN(CC(O)COc2ccc(Br)cc2)CC1 (centres unmarked) | -64.9% |
| N#Cc1c(Nc2ccccc2)s[nH]c1=O | 12.5% |
| Cc1[nH]c2ccccc2c1/C=N\NC(=O)CNc1ccc2c(c1)OCO2 | 2.88% |
| CC(C)N(Cc1cnn(C)c1)Cc1nc(COc2ccccc2)no1 | 2.96% |
| CCOC(=O)CNC(=O)C1Cc2ccccc2CN1S(=O)(=O)c1cccs1 (centres unmarked) | 4.79% |
| CN1CCN(S(=O)(=O)c2ccc(Br)c3ccccc23)CC1 | -6.71% |
| CCOc1ccccc1C1C(C(N)=O)=C(C)Nc2nc(CCCO)nn21 (centres unmarked) | 18.4% |
| NC(=O)c1c(NC(=O)COC(=O)c2ccc(S(=O)(=O)Nc3ccccc3)cc2)sc2c1CCCC2 | 13.6% |
| COc1ccccc1/C=C1\SC(=O)N(CC(=O)NCCCn2ccnc2)C1=O | -3.76% |
| CC(C)C[C@H](NC(=O)OC(C)(C)C)C(=O)N/N=C/C1=Cc2ccccc2OC1C (some centres unmarked) | -0.94% |
| O=S(=O)(c1ccc(SCCOc2ccccc2)nc1)N1CCCC1 | -16.8% |
| CCc1c(C)nc2cc(-c3ccc(OC)c(OC)c3)nn2c1N1CCC(C)CC1 | 21% |
